± gives the standard deviation of the averaged measurements. Laboratory Escherichia coli strains with one amino-acid change in an essential protein, pooled on minimal glucose agar with carbenicillin or gentamicin at twice the control MIC (plus kanamycin and chloramphenicol for the plasmids), 48 h. Fold change of barcode share against drug-free plates; higher = less susceptible. Active = above 20 in both replicates (the paper's putatively resistant). '<' = one read or none on drug, '>' = one read or none on a drug-free plate. Shares are relative, so most strains fall below 1 when a few take over. Listed are strains with at least 15 reads on both drug-free plates, and hits; most hits rest on fewer reference reads. Replicate rank correlation about 0.5. Edits are read from barcodes.
B1: gltA; a variant is named by its letters at X, in order (parent)
chain: MADTKAKLTLNGDTAVELDVLKGTLGQDVIDIRTLGSKGVFTFDPGFTSTASCESKITFIDGDEGILLHRGFPIDQLATDSNYLEVCYILLNGEKPTQEQYDEFKTTVTRHTMIHEQXTRLXHAFRRDSHPMAVMCGITGALAAFYHDSLDVNNPRHREIAAFRLLSKMPTMAAMCYKYSIGQPFVYPRNDLSYAGNFLNXMFSTPCEPYEVNPILERAMDRILILHADHEQNASTSTVRTAGSSGANPFACIAAGIASLWGPAHGGANEAALKMLEEISSVKHIPEFVRRAKDKNDSFRLMGFGHRVYKNYDPRATVMRETCHEVLKELGTKDDLLEVAMELENIALNDPYFIEKKLYPNVDFYSGIILKAMGIPSSMFTVXXAMARTVGWXAHWSEMHSDGMKIARPRQLYTGYEKRDFKSDIKR
B2: parE; numbered along this chain (parent)
chain: MTQTYNADAIEVLTGLEPVRRRPGMYTDTTRPNHLGQEVIDNSVDEALAGHAKRVDVILHADQSLEVIDDGRGMPVDIHPEEGVPAVELILCRLHAGGKFSNKNYQFSGGLHGVGISVVNALSKRVEVNVRRDGQVYNIAFENGEKVQDLQVVGTCGKRNTGTSVHFWPDETFFDSPRFSVSRLTHVLKAKAVLCPGVEITFKDEINNTEQRWCYQDGLNDYLAEAVNGLPTLPEKPFIGNFAGDTEAVDWALLWLPEGGELLTESYVNLIPTMQGGTHVNGLRQGLLDAMREFCEYRNILPRGVKLSAEDIWDRCAYVLSVKMQDPQFAGQTKERLSSRQCAAFVSGVVKDAFILWLNQNVQAAELLAEMAISSAQRRMRAAKKVVRKKLTSGPALPGKLADCTAQDLNRTELFLVEGDSAGGSAKQARDREYQAIMPLKGKILNTWEVSSDEVLASQEVHDISVAIGIDPDSDDLSQLRYGKICILADADSDGLHIATLLCALFVKHFRALVKHGHVYVALPPLYRIDLGKEVYYALTEEEKEGVLEQLKRKKGKPNVQRFKGLGEMNPMQLRETTLDPNTRRLVQLTIDDEDDQRTDAMMDMLLAKKRSEDRRNWLQEKGDMAEIEV

How the values were obtained:
[1] = variants of: B1; assay: barcode share on antibiotic plates over drug-free plates; higher = less susceptible; conditions: with Escherichia coli (laboratory strain)
Method: (§1)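 A pool of E. coli strains, each edited to carry one amino-acid change in an essential protein, was grown for 48 h on minimal glucose agar with or without antibiotic; strain barcodes were sequenced; mean of two replicates.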

[2] = variants of: B2; assay: as above; conditions: with Escherichia coli (laboratory strain); remark: listed apart in the source
Method: as §1

[3] = antibiotic: carbenicillin, 2× MIC (3.1 µg/mL)
[4] = antibiotic: gentamicin, 2× MIC (MIC 0.45 µg/mL)

Variant	fold change of barcode share [1, 3]	fold change of barcode share [1, 4]	fold change of barcode share [2, 4]	fold change of barcode share [2, 3]
MADTKAKLTLNGDTAVELDVLKGTLGQDVIDIRTLGSKGVFTFDPGFTSTASCESKITFIDGDEGILLHRGFPIDQLATDSNYLEVCYILLNGEKPTQEQYDEFKTTVTRHTMIHEQITRLDHAFRRDSHPMAVMCGITGALAAFYHDSLDVNNPRHREIAAFRLLSKMPTMAAMCYKYSIGQPFVYPRNDLSYAGNFLNMMFSTPCEPYEVNPILERAMDRILILHADHEQNASTSTVRTAGSSGANPFACIAAGIASLWGPAHGGANEAALKMLEEISSVKHIPEFVRRAKDKNDSFRLMGFGHRVYKNYDPRATVMRETCHEVLKELGTKDDLLEVAMELENIALNDPYFIEKKLYPNVDFYSGIILKAMGIPSSMFTVIFAMARTVGWIAHWSEMHSDGMKIARPRQLYTGYEKRDFKSDIKR [IDMIFI]	1.64 ± 0.12	–	–	–
MADTKAKLTLNGDTAVELDVLKGTLGQDVIDIRTLGSKGVFTFDPGFTSTASCESKITFIDGDEGILLHRGFPIDQLATDSNYLEVCYILLNGEKPTQEQYDEFKTTVTRHTMIHEQQTRLFHAFRRDSHPMAVMCGITGALAAFYHDSLDVNNPRHREIAAFRLLSKMPTMAAMCYKYSIGQPFVYPRNDLSYAGNFLNMMFSTPCEPYEVNPILERAMDRILILHADHEQNASTSTVRTAGSSGANPFACIAAGIASLWGPAHGGANEAALKMLEEISSVKHIPEFVRRAKDKNDSFRLMGFGHRVYKNYDPRATVMRETCHEVLKELGTKDDLLEVAMELENIALNDPYFIEKKLYPNVDFYSGIILKAMGIPSSMFTVIFAMARTVGWIAHWSEMHSDGMKIARPRQLYTGYEKRDFKSDIKR [QFMIFI]	0.529 ± 0.012	0.0521 ± 0.03	–	–
MADTKAKLTLNGDTAVELDVLKGTLGQDVIDIRTLGSKGVFTFDPGFTSTASCESKITFIDGDEGILLHRGFPIDQLATDSNYLEVCYILLNGEKPTQEQYDEFKTTVTRHTMIHEQDTRLFHAFRRDSHPMAVMCGITGALAAFYHDSLDVNNPRHREIAAFRLLSKMPTMAAMCYKYSIGQPFVYPRNDLSYAGNFLNMMFSTPCEPYEVNPILERAMDRILILHADHEQNASTSTVRTAGSSGANPFACIAAGIASLWGPAHGGANEAALKMLEEISSVKHIPEFVRRAKDKNDSFRLMGFGHRVYKNYDPRATVMRETCHEVLKELGTKDDLLEVAMELENIALNDPYFIEKKLYPNVDFYSGIILKAMGIPSSMFTVIFAMARTVGWIAHWSEMHSDGMKIARPRQLYTGYEKRDFKSDIKR [DFMIFI]	0.644 ± 0.059	0.0146 ± 0.012	–	–
MADTKAKLTLNGDTAVELDVLKGTLGQDVIDIRTLGSKGVFTFDPGFTSTASCESKITFIDGDEGILLHRGFPIDQLATDSNYLEVCYILLNGEKPTQEQYDEFKTTVTRHTMIHEQITRLFHAFRRDSHPMAVMCGITGALAAFYHDSLDVNNPRHREIAAFRLLSKMPTMAAMCYKYSIGQPFVYPRNDLSYAGNFLNMMFSTPCEPYEVNPILERAMDRILILHADHEQNASTSTVRTAGSSGANPFACIAAGIASLWGPAHGGANEAALKMLEEISSVKHIPEFVRRAKDKNDSFRLMGFGHRVYKNYDPRATVMRETCHEVLKELGTKDDLLEVAMELENIALNDPYFIEKKLYPNVDFYSGIILKAMGIPSSMFTVAFAMARTVGWIAHWSEMHSDGMKIARPRQLYTGYEKRDFKSDIKR [IFMAFI]	0.5 ± 0.025	–	–	–
MADTKAKLTLNGDTAVELDVLKGTLGQDVIDIRTLGSKGVFTFDPGFTSTASCESKITFIDGDEGILLHRGFPIDQLATDSNYLEVCYILLNGEKPTQEQYDEFKTTVTRHTMIHEQITRLFHAFRRDSHPMAVMCGITGALAAFYHDSLDVNNPRHREIAAFRLLSKMPTMAAMCYKYSIGQPFVYPRNDLSYAGNFLNMMFSTPCEPYEVNPILERAMDRILILHADHEQNASTSTVRTAGSSGANPFACIAAGIASLWGPAHGGANEAALKMLEEISSVKHIPEFVRRAKDKNDSFRLMGFGHRVYKNYDPRATVMRETCHEVLKELGTKDDLLEVAMELENIALNDPYFIEKKLYPNVDFYSGIILKAMGIPSSMFTVIDAMARTVGWIAHWSEMHSDGMKIARPRQLYTGYEKRDFKSDIKR [IFMIDI]	32.8 [active]	–	–	–
MADTKAKLTLNGDTAVELDVLKGTLGQDVIDIRTLGSKGVFTFDPGFTSTASCESKITFIDGDEGILLHRGFPIDQLATDSNYLEVCYILLNGEKPTQEQYDEFKTTVTRHTMIHEQWTRLFHAFRRDSHPMAVMCGITGALAAFYHDSLDVNNPRHREIAAFRLLSKMPTMAAMCYKYSIGQPFVYPRNDLSYAGNFLNMMFSTPCEPYEVNPILERAMDRILILHADHEQNASTSTVRTAGSSGANPFACIAAGIASLWGPAHGGANEAALKMLEEISSVKHIPEFVRRAKDKNDSFRLMGFGHRVYKNYDPRATVMRETCHEVLKELGTKDDLLEVAMELENIALNDPYFIEKKLYPNVDFYSGIILKAMGIPSSMFTVIFAMARTVGWIAHWSEMHSDGMKIARPRQLYTGYEKRDFKSDIKR [WFMIFI]	0.632 ± 0.12	0.0933 ± 0.12	–	–
MADTKAKLTLNGDTAVELDVLKGTLGQDVIDIRTLGSKGVFTFDPGFTSTASCESKITFIDGDEGILLHRGFPIDQLATDSNYLEVCYILLNGEKPTQEQYDEFKTTVTRHTMIHEQITRLFHAFRRDSHPMAVMCGITGALAAFYHDSLDVNNPRHREIAAFRLLSKMPTMAAMCYKYSIGQPFVYPRNDLSYAGNFLNMMFSTPCEPYEVNPILERAMDRILILHADHEQNASTSTVRTAGSSGANPFACIAAGIASLWGPAHGGANEAALKMLEEISSVKHIPEFVRRAKDKNDSFRLMGFGHRVYKNYDPRATVMRETCHEVLKELGTKDDLLEVAMELENIALNDPYFIEKKLYPNVDFYSGIILKAMGIPSSMFTVIFAMARTVGWWAHWSEMHSDGMKIARPRQLYTGYEKRDFKSDIKR [IFMIFW]	0.801 ± 0.48	< 0.0144	–	–
MADTKAKLTLNGDTAVELDVLKGTLGQDVIDIRTLGSKGVFTFDPGFTSTASCESKITFIDGDEGILLHRGFPIDQLATDSNYLEVCYILLNGEKPTQEQYDEFKTTVTRHTMIHEQATRLFHAFRRDSHPMAVMCGITGALAAFYHDSLDVNNPRHREIAAFRLLSKMPTMAAMCYKYSIGQPFVYPRNDLSYAGNFLNMMFSTPCEPYEVNPILERAMDRILILHADHEQNASTSTVRTAGSSGANPFACIAAGIASLWGPAHGGANEAALKMLEEISSVKHIPEFVRRAKDKNDSFRLMGFGHRVYKNYDPRATVMRETCHEVLKELGTKDDLLEVAMELENIALNDPYFIEKKLYPNVDFYSGIILKAMGIPSSMFTVIFAMARTVGWIAHWSEMHSDGMKIARPRQLYTGYEKRDFKSDIKR [AFMIFI]	0.545 ± 0.056	0.0109 ± 0.011	–	–
MADTKAKLTLNGDTAVELDVLKGTLGQDVIDIRTLGSKGVFTFDPGFTSTASCESKITFIDGDEGILLHRGFPIDQLATDSNYLEVCYILLNGEKPTQEQYDEFKTTVTRHTMIHEQPTRLFHAFRRDSHPMAVMCGITGALAAFYHDSLDVNNPRHREIAAFRLLSKMPTMAAMCYKYSIGQPFVYPRNDLSYAGNFLNMMFSTPCEPYEVNPILERAMDRILILHADHEQNASTSTVRTAGSSGANPFACIAAGIASLWGPAHGGANEAALKMLEEISSVKHIPEFVRRAKDKNDSFRLMGFGHRVYKNYDPRATVMRETCHEVLKELGTKDDLLEVAMELENIALNDPYFIEKKLYPNVDFYSGIILKAMGIPSSMFTVIFAMARTVGWIAHWSEMHSDGMKIARPRQLYTGYEKRDFKSDIKR [PFMIFI]	0.502 ± 0.11	< 0.0102	–	–
V119D	–	–	< 0.0199	–
L358A	–	–	< 0.00418	0.235 ± 0.038
L358Q	–	–	< 0.00548	0.452 ± 0.028
L358W	–	–	–	0.165 ± 0.0069
L122P	–	–	< 0.0202	–
V346D	–	–	0.0123 ± 0.0093	0.318 ± 0.089
V346P	–	–	0.00342 ± 0.0025	0.379 ± 0.065
V346W	–	–	0.00641 ± 0.0026	0.5936 ± 0.003
V346Q	–	–	0.00804 ± 0.0059	0.528 ± 0.43
L283A	–	–	0.0316 ± 0.014	–

Reference: the supplement of paper PMC11876631
